In the supplement of paper PMC10126150:
Values marked as one replicate rest on one cluster of the flow cell; about a third of the high ones do not repeat.

Test system: ATP
Test: switch fluorescence ratio, 500 uM ATP over buffer (Cy3 cluster intensity, sum of 5 cycles each) (fold (ratio)); higher = stronger signal-on switching upon ATP binding; sequences stand for … in TCGTCGGCAGCGTCAGATGTGTATAAGAGACAGTTTTTTTTTTTTTTTTTTTTTTTTT…TC
Conditions: aptamer strand: ATP DNA aptamer (quencher-CACCTGGGGGAGTATTGCGGAGGAAGG + anchor), 100 nM annealed; ATP concentration: 500 uM; one replicate
Outline: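 Switching-strand clusters labelled with Cy3 on a modified Illumina MiSeq flow-cell were annealed to 100 nM quencher-labelled ATP aptamer, imaged in selection buffer, and re-imaged after 15 min with 500 uM ATP at 22 °C. This was done over five cycles with NaOH stripping and re-annealing in between. The fluorescence ratio is summed target-cycle over summed buffer-cycle Cy3 intensity per cluster, averaged per switch-domain sequence, excluding clusters outside 100-1000 RFU.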
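Further: ATP exposure 15 min at 22 °C before imaging.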

Sequence | switch fluorescence ratio
ATGCTTAGAT | 0.984
ATGCTTGTAC | 1.11
ATGGAAAACT | 1.06
ATGGAAGTAA | 1.02
ATGGACGCAG | 0.952
ATGGACGCGG | 1.01
ATGGAG | 0.976
ATGGAGAAAA | 1.01
ATGGATATAA | 0.987
ATGGATCAGC | 1.02
ATGGATGTAA | 1.02
ATGGATGTAT | 0.949
ATGGATTACA | 1.03
ATGGCAACTT | 1.04
ATGGCACTAG | 0.992
ATGGCAGTCG | 0.975
ATGGCCAAGG | 0.989
ATGGCGAGGC | 1.03
ATGGCGCGCC | 1.01
ATGGCGGCAG | 0.99
ATGGGATGAA | 0.995
ATGGGATGTT | 0.988
ATGGGCCACC | 0.988
ATGGGCCAT | 0.98
ATGGGCCGGT | 0.992
ATGGGCTAAT | 1.01

Sequence | switch fluorescence ratio
ATGGGGAGC | 1.14
ATGGGGGCTC | 0.982
ATGGGGTAAG | 1.05
ATGGGGTACT | 1.03
ATGGGTGA | 1.01
ATGGGTGACA | 1.04
ATGGGTGGAC | 1.04
ATGGGTGTCA | 0.985
ATGGGTTAAA | 1.03
ATGGGTTGCG | 1.01
ATGGTAAATA | 0.997
ATGGTACGTT | 0.99
ATGGTATA | 1.03
ATGGTATATC | 1.02
ATGGTGAAAG | 1.02
ATGGTGCATA | 1.01
ATGGTGCGCA | 0.892
ATGGTGCTTG | 1.04
ATGGTGGAGT | 1.02
ATGGTTCAAG | 0.965
ATGGTTCGTA | 0.989
ATGGTTCTGC | 1.11
ATGGTTTCTA | 0.953
ATGTAAGGGC | 1.15
ATGTAATGG | 0.99
ATGTAATGGG | 1.03

Sequence | switch fluorescence ratio
ATGTAATTTT | 1.02
ATGTAGACCC | 0.961
ATGTAGACGC | 0.963
ATGTAGGCCT | 0.966
ATGTATGAGT | 0.976
ATGTATTGAC | 1.04
ATGTATTGG | 1.03
ATGTCATCAC | 1.1
ATGTCATTAG | 1
ATGTCCCACA | 1.02
ATGTCCTGA | 1.03
ATGTCTAAGT | 1.03
ATGTCTGGTA | 0.988
ATGTGAAACC | 1.03
ATGTGAAACT | 1.02
ATGTGATAAA | 0.964
ATGTGCATTA | 0.998
ATGTGGTGCG | 0.966
ATGTGTGTGT | 0.958
ATGTTAACCG | 0.992
ATGTTCTTTC | 0.989
ATGTTGAGAC | 1.01
ATGTTGCTTT | 0.958
ATGTTGGAAA | 0.984
ATGTTTAATA | 1.03
ATGTTTACCA | 0.993

Sequence | switch fluorescence ratio
ATGTTTCGGG | 0.945
ATTAAACTTT | 0.955
ATTAAAGCTC | 0.967
ATTAACAAGT | 1.05
ATTAACAATC | 1.1
ATTAACCAGT | 1.03
ATTAACTGTA | 1.18
ATTAATCAAA | 1.03
ATTACACTCT | 1.02
ATTACAGAGG | 0.973
ATTACATGAG | 1.04
ATTACCGAGC | 1.08
ATTACCTAAA | 1.02
ATTACGCTTA | 1.15
ATTACGTAAC | 1.44
ATTACTAGG | 0.99
ATTACTTGAA | 1.02
ATTAGCAATT | 1.37
ATTAGGAGTA | 0.992
ATTAGGCACA | 1.14
ATTAGGCCGT | 1.01
ATTAGGGGCT | 0.976
ATTAGTTGGT | 0.992
ATTATAAAGA | 1.03
ATTATAACCA | 1.02
ATTATAATAA | 0.975

Sequence | switch fluorescence ratio
ATTATCAGCT | 1.03
ATTATCAGGG | 0.972
ATTATCGTAT | 1.03
ATTATGCACT | 1.03
ATTATTCGGC | 0.996
ATTATTGTGC | 1.01
ATTATTGTTC | 1.01
ATTATTTAT | 1.03
ATTATTTCG | 1.04
ATTCAAACGC | 1.23
ATTCAAGTTC | 0.998
ATTCAATTGA | 0.954
ATTCAGCGC | 1.01
ATTCAGTTTC | 1.01
ATTCATGATG | 0.995
ATTCATGCTG | 0.92
ATTCATTAGT | 0.997
ATTCATTT | 0.985
ATTCCATACG | 1.07
ATTCCCCTCG | 1.12
ATTCCGAGTT | 1.31
ATTCCGTTAG | 1.03
ATTCCTATG | 1.02
ATTCGAAAAC | 1.12
ATTCGAGGTC | 0.991
ATTCGATCCA | 0.997

Sequence | switch fluorescence ratio
ATTCGCAAAT | 2.14
ATTCGCGTA | 1.04
ATTCGGGATC | 0.996
ATTCGGTTCT | 0.975
ATTCTAATAA | 1.01
ATTCTCAACT | 1.01
ATTCTCAGCG | 1.01
ATTCTCAGTA | 0.939
ATTCTCATCA | 1
ATTCTCGAGT | 0.971
ATTCTCTGAC | 1.12
ATTCTGAATA | 0.985
ATTCTGATTA | 0.956
ATTCTGCGTT | 0.946
ATTCTGGAAG | 0.995
ATTCTGGTAT | 0.997
ATTCTTCAGT | 1.02
ATTCTTGATC | 0.966
ATTCTTGGCA | 0.986
ATTCTTTGAG | 1.03
ATTCTTTTAG | 0.999
ATTGAACAGA | 0.997
ATTGACAGCT | 1.02
ATTGAGCATT | 1.01
ATTGAGTACC | 1.03
ATTGATAT | 1

Sequence | switch fluorescence ratio
ATTGATGCCG | 0.974
ATTGATGCGC | 1.04
ATTGCAATGA | 1.03
ATTGCAGCTT | 0.96
ATTGCGCCTC | 1.04
ATTGCTCTAA | 1.02
ATTGCTTAAT | 1.02
ATTGGAAG | 0.986
ATTGGACACG | 0.999
ATTGGACCCC | 1.01
ATTGGAGAGG | 1.03
ATTGGAGGAG | 0.971
ATTGGATCAT | 0.985
ATTGGATTAA | 0.957
ATTGGCGCGT | 1
ATTGGTGCCG | 0.904
ATTGTAACTA | 1.04
ATTGTAAGGT | 0.979
ATTGTAGGCT | 1.01
ATTGTAGTGA | 1.01
ATTGTCCTTG | 1.02
ATTGTGGCCG | 1.01
ATTGTGTATG | 0.985
ATTGTTAGAA | 1.02
ATTGTTATG | 1.08
ATTGTTGATA | 1.02

Sequence | switch fluorescence ratio
ATTTAAAGAC | 0.922
ATTTAAAGTG | 0.958
ATTTAAGAT | 0.971
ATTTACTTAC | 1.26
ATTTAGGGAG | 0.994
ATTTAGGTAT | 0.991
ATTTAGTGGC | 1.01
ATTTATAAGC | 1.02
ATTTATAGTA | 1
ATTTATTAGT | 1.02
ATTTCCTAAT | 1
ATTTCGCATG | 1.02
ATTTCGCATT | 1.03
ATTTCGGGCA | 0.955
ATTTGAAGGG | 0.999
ATTTGACCAA | 1.01
ATTTGACTCA | 1.05
ATTTGAGTAA | 0.969
ATTTGATATT | 1.14
